Test results as given in patent US20210180049A1 (CHUGAI SEIYAKU KABUSHIKI KAISHA, priority 2013, published 2021).
Where a chain is given by its changes, count along the chain named.

Tests used:
[1] = SPR (Biacore T200) binding of 6RNMSC1-2_F02 and variants to kynurenine
Method: An appropriate amount of protein A (Invitrogen) was immobilized onto Sensor chip CM4 (GE Healthcare) by the amine coupling method. The antibody of interest was captured thereon, and the antigen kynurenine and derivatives thereof were allowed to interact. The running buffer used was 50 mmol/L Tris-HCl, 150 mmol/L NaCl, 0.02% (w/v) Tween 20, 5% DMSO, pH 7.6. All measurements were carried out at 15° C. The antigens were diluted with the running buffer.
Then, the running buffer was run at a flow rate of 30 μL/min for 60 seconds to observe the dissociation of antigens from the antibody. Kinetic parameters, the association rate constant ka (1/Ms) and the dissociation rate constant kd (l/s), were calculated based on the sensorgrams obtained by the measurements. The dissociation constant KD (M) was calculated from these constants. Each parameter was calculated using Biacore T200 Evaluation Software (GE Healthcare).
(§1) Meanwhile, the type of sensor chip immobilized with Protein A was changed to Sensor chip Series S CM3 (GE Healthcare) to measure some of the variants. When kynurenine dissociation was too fast to determine the dissociation rate constant, a dissociation constant KD (M) was calculated by analysis of equilibrium values based on the degree of binding response during the interaction with each antigen (association phase). In this case also, Biacore T200 Evaluation Software (GE Healthcare) was used to calculate the parameters.
as §1
When kynurenine dissociation was too fast to determine the dissociation rate constant, the dissociation constant KD (M) was calculated by analysis of equilibrium values based on the degree of binding response when it is interacted with each antigen (association phase). Also in this case, the Biacore T200 Evaluation Software (GE Healthcare) was used to calculate parameters. […] Each variant and its parental antibody F02h011/F021003 were compared in terms of the KD value for kynurenine.
When kynurenine dissociation was too fast to determine the dissociation rate constant, the dissociation constant KD (M) was calculated by analyzing equilibrium values based on the degree of binding response when it is interacted with each antigen (association phase). […]

[2] = biological target: T1, human IL-6 receptor (hIL-6R) (Homo sapiens, UniProt P08887); test: SPR (Biacore T200) of ATP/adenosine-dependent antibody clones with immobilized hIL-6R with various small molecules; assay type: binding; details: 1 mM ATP; hIL-6R immobilized on Sensor chip CM5; antibody as analyte; 25° C., pH 7.4; from plot of equilibrium values against antibody concentration; read-out: Dissociation constant KD
T1 sequence (P08887 20-357 limits assumed): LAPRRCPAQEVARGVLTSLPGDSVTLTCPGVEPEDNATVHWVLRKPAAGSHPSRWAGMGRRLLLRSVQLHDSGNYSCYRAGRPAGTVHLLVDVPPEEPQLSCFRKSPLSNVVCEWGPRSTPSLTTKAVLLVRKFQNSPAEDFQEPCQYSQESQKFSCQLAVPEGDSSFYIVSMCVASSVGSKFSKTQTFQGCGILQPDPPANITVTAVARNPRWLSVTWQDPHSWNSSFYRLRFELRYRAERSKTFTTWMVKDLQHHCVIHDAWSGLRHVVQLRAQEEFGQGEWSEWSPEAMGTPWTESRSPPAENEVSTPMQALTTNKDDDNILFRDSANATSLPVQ
Method: Biacore T200 (GE Healthcare) was used to assess various small molecules for their effect on the antigen-antibody reaction between hIL-6R and nine clones of ATP/adenosine-dependent antibody (6RAD2C1-4_001, 6RAD2C1-4_005, 6RAD2C1-4_011, 6RAD2C1-4_026, 6RAD2C1-4_030, 6RAD2C1-4_042, 6RAD2C1-4_076, 6RDL3C1-4_085, and 6RDL3C5-4_011) isolated from a library. The running buffer used was 20 mmol/L ACES, 150 mmol/L NaCl, 0.05% (w/v) Tween20, pH 7.4. The assay was performed at 25° C. hIL-6R was immobilized onto Sensor chip CM5 by amine coupling, and interacted with the antibodies as an analyte for 120 seconds to observe changes in the amount of binding. Antibodies were diluted with the running buffer or the running buffer added with any one of ATP, ADP, AMP, cAMP, and adenosine (ADO). The final concentration of each small molecule was adjusted to 1 mM, and the final concentration of the antibody was adjusted to 1 μM. Meanwhile, under the 1 mM ATP condition, the assay was carried out with a series of stepwise antibody concentrations. The dissociation constant KD (mol/L) of each clone for hIL-6R was calculated from a plot of equilibrium values against antibody concentration. The parameters were calculated using the Biacore T200 Evaluation Software (GE Healthcare).

B1: 6RNMSC1-2_F02H49Y: heavy chain SEQ ID NO: 32; light chain SEQ ID NO: 45 (antibody, listed as Homo sapiens, V domains shown)
VH: QVQLVQSGAEVKKPGSSVKVSCKASGGTFSSYAISWVRQAPGQGLEWMGGIIPIFGTANYAQKFQGRVTITADESTSTAYMELSSLRSEDTAVYYCARDAPVVARPRGAFDIWGQGTMVTVSS
VL: [in this place about 100 residues]QFPRTFGQGTKVEIK
[1]; Biacore
  kynurenine binding (in words): retained kynurenine binding
[1]; Biacore T200, 15° C., 5% DMSO
  Kd: 95 µM
  ka for kynurenine: 2543 l/(M·s)
  kd for kynurenine: 0.24 L/s

B2: 6RAD2C1-4_42 (antibody)
heavy: EVQLVESGGDLVKPGGGLRLSCAASGFTFSSYTMNWVRQAPGKGLEWVSSISSRSSYASYADSVKGRFTISRDNAKNSLYLQMNSLRAEDTAVYYCARYGRLNSHNWVFDYWGQGTLVTVSS[in this place human IgG1 constant region]
light: QSALTQPPSASGSPGQTVTISCTGTSTDVGFYNYVSWYQQHPGKAPKLMIYQGSKKPSGVPDRFSGSKSGNTASLTVSGLQAEDEADYFCSTRATTKGVLFGGGTKLTVLGQPKAAPSVTLFPPSSEELQANKATLVCLISDFYPGAVTVAWKADSSPVKAGVETTTPSKQSNNKYAASSYLSLTPEQWKSHRSYSCQVTHEGSTVEKTVAPTECS
[2]
  Kd: 250 nM

B3: 6RDL3C5-4_11 (antibody)
heavy: B2 heavy with Y32H, S56G, A58I, S59F, Y99F, R101K, S104H, H105M
light: B2 light with F31T, G53V, K56R, T95I, K97R, L100A
[2]
  Kd: 130 nM
